# Reference: PubChem BioAssay AID1159614 (National Center for Advancing Translational Sciences (NCATS), 2016)
# About 65 (0.1%) of roughly 45,000 compounds were called active. Calls come from the whole dose curve; as a rule, active = well fitted activation curve with a large enough effect; inconclusive = small, poorly fitted or top-dose-only effect; inactive = no such curve, though single readings can be large or run the other way. This is one part of the list.
# Biological target: Galactocerebrosidase (Homo sapiens) (UniProt P54803)
# Assay: A Novel Cell-Based Assay to Identify Small Molecules for B -Galactocerebrosidase; note: nearly all actives have a fitted effect of over 65% in size; for activation: 0% is about no effect
# Details: 145M-Twi-hGALC-G270D cells (Twitcher mouse brain line with human GALC G270D), HMU-beta-Gal fluorescence, 48 h; series mostly up to 57.5 µM; activation: at the top concentration
# Procedure, shortened: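 Brain-derived Twitcher mouse 145M-Twi cells stably expressing human GALC-G270D or wild-type GALC, treated live, then residual GALC activity read by fluorescence of HMU-b-Gal substrate (0.1 mM final) in citrate-phosphate buffer pH 5.2 with sodium taurocholate. Signal increase indicates enhancement.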
# Potency is the fitted concentration of half-maximal effect.
# Chain of UniProt P54803 (P54803 whole entry, looked up): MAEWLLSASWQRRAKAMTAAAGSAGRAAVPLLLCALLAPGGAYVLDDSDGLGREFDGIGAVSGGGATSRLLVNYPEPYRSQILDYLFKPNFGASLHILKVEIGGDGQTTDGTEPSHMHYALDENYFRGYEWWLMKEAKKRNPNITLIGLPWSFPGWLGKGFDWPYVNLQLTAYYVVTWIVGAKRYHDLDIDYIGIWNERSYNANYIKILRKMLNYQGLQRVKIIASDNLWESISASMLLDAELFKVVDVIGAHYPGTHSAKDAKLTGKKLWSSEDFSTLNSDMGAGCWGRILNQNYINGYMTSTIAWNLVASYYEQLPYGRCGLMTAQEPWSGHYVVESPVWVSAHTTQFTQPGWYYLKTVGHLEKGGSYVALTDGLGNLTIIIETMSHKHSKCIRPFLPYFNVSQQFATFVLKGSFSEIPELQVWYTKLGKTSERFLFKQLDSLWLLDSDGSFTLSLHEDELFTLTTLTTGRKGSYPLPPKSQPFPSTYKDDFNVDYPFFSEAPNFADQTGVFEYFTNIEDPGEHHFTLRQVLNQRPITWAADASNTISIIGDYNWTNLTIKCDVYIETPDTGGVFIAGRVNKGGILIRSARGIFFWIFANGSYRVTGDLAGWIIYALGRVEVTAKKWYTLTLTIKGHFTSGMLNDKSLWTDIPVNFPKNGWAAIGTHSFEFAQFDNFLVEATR
SMILES,activation,Potency
COc1cccc(NC(=O)c2oc3ccccc3c2NC(=O)COc2ccccc2C)c1,inactive: 8.5%,
COc1ccc(-c2nnn3c2nc(NCc2ccccc2)c2ccccc23)cc1,inactive: -9.88%,
Cc1cc(C)n2nc(SCC(=O)Nc3ccc(O)cc3)nc2n1,inactive: -16.4%,
Cc1ccc(NC(=O)CSc2ncccc2C(=O)Oc2ccccc2Cl)cc1Cl,inactive: -10.2%,
COc1ccc2[nH]cc(CCNC(=O)Nc3c(C)cccc3C)c2c1,inactive: -21.7%,
CCc1cccc(CC)c1NC(=O)CCS(=O)(=O)c1ccc(Br)cc1,inactive: 4.39%,
O=c1c2sc3ccccc3c2n(Cc2ccc(F)cc2)c(=O)n1Cc1ccccc1,inactive: 5.72%,
COc1ccc(-c2ccc(NS(=O)(=O)c3ccccc3)cc2)nn1,inactive: 2.98%,
CCOc1ccc(-c2cc(C(=O)NCc3ccc(OCC)c(OC)c3)[nH]n2)cc1,inactive: -13.6%,
CCc1ccc(NC(=O)Cn2c(=O)n(CCCC(=O)NCc3ccccc3OC)c(=O)c3ccccc32)cc1,inactive: -2.17%,
COc1cc(-c2nc(Cn3nnc(C(=O)Nc4ccccc4C)c3C)c(C)o2)cc(OC)c1OC,inactive: -14.6%,
CCOC(=O)c1cc(-c2ccccc2)n(CCC(=O)Nc2ccc(OC)c(Cl)c2)c1C,inactive: -24.3%,
COc1cc(C)ccc1OCCSc1nc2ccc(NC(=O)c3ccc4c(c3)OCO4)cc2s1,inactive: -6.58%,
Cc1ccccc1-c1nc2c(c(SCc3cccc(Cl)c3)n1)Cc1c(CO)cnc(C)c1O2,inactive: -8.07%,
Cc1cc(NC(=O)CN(C)S(=O)(=O)c2ccc3c(c2)CCCC(=O)N3)ccc1Br,inactive: -35.4%,
Clc1cccc(N2CCN(c3nc4ccccc4c4nc(-c5cccnc5)nn34)CC2)c1,inactive: -18.6%,
CC(=O)N1c2ccc(S(=O)(=O)N3CCCCCC3)cc2CC1C(=O)NCc1cccc(F)c1 (stereo not given),inactive: -22.1%,
CNC1CCCN(c2c(F)cc3c(=O)c(C(=O)O)cn(C4CC4)c3c2OC)C1 (stereo not given),inactive: -13.4%,
COc1ccc(C)cc1NC(=O)c1ccc2c(c1)N(Cc1cccc(Cl)c1)C(=O)c1ccccc1S2=O (stereo not given),inactive: 7.09%,
Cc1ccc(C)c(NC(=O)c2ccc(=O)n(Cc3ccc(F)cc3)c2)c1,inactive: -9.47%,
CCOC(=O)c1noc2ncn(CC(=O)Nc3ccc(OC)c(Cl)c3)c(=O)c12,inactive: -15.9%,
CCOc1ccc(CC(=O)NCCS(=O)(=O)N2CCN(c3ccccc3OC)CC2)cc1,inactive: -19.3%,
CCCCC(=O)Nc1cc(-c2nc3ccccc3o2)ccc1OC,inactive: 6.12%,
CCS(=O)(=O)N1CCc2cc(C(=O)N3CCN(c4ccccc4)CC3)ccc21,inactive: -21.5%,

SMILES,activation,Potency
Cc1ccc(S(=O)(=O)c2nc(-c3cccs3)oc2SC(C)c2ccccc2)cc1 (stereo not given),inactive: -11.7%,
CC(C)CCNC(=O)c1ccc(Cn2c(=O)c3cccn3c3cccnc32)cc1,inactive: -2.87%,
Cc1ccccc1Nc1c(-c2cccc(O)c2)nc2ccc(Br)cn12,inactive: -28.3%,
O=S(=O)(NCc1ccc(F)cc1)c1ccc2[nH]c3c(c2c1)CCCCC3,inactive: -8.18%,
CCOC(=O)c1nc(Nc2ccc(OC)cc2)c2ccccc2n1,inactive: -6.65%,
Cc1sc(C2C(C#N)=C(N)N(c3cccc(Cl)c3)C3=C2C(=O)CCC3)cc1CN1CCOCC1 (stereo not given),inactive: -14%,
Cc1ccc(CNC(=O)c2cc(S(=O)(=O)N3CCCC(C)C3)cn2C)cc1 (stereo not given),inactive: -26.3%,
Cc1ccc(-c2nn(-c3cccc([N+](=O)[O-])c3)c3c2cnc2ccc(F)cc23)cc1,inactive: 0.501%,
COc1cc(OC)c(NC(=O)CSC2=Nc3ccccc3N=C(c3ccc(F)cc3)C2)cc1Cl,inactive: -3.83%,
CCOc1ccc(CNC(=O)c2ccc3c(c2)sc2nc(-c4ccc(OC)cc4)cn23)cc1,inactive: -18.3%,
Cc1cc2c(n1-c1ccc(C(=O)NCC(C)c3ccccc3)cc1)CCCC2 (stereo not given),inactive: -21.8%,
Cc1cccc(Nc2nc(Nc3cccc(C)c3)nc(N3CCOCC3)n2)c1,inactive: -22.1%,
Cc1ccc2oc(-c3ccc(C)c(NC(=O)c4ccc5c(c4)OCCO5)c3)nc2c1,inactive: -24.3%,
CCOc1cccc(C(=O)Nc2ccc3oc(-c4ccc(C(C)(C)C)cc4)nc3c2)c1,inactive: -7.11%,
COc1ccc(NC(=O)Cn2c(=O)n(-c3cccc(C)c3)c(=O)c3c2c2cc(C)ccc2n3C)cc1OC,inactive: -16.7%,
CC(CCO)Nc1nc2c(c(=O)n(C)c(=O)n2C)n1Cc1ccc(Br)cc1 (stereo not given),,active: 22.4 µM
COc1ccc(-c2n[nH]c3c2C(c2ccc(Cl)cc2Cl)NC3=O)cc1 (stereo not given),inactive: -4.39%,
COc1ccc(-n2c(=O)c3c(c4cc(OC)ccc4n3C)n(CC(=O)NCC3CCCO3)c2=O)cc1 (stereo not given),inactive: 23.5%,
CCN(CCCNC(=O)c1ccc(Sc2ccc(C)cc2)c(NC(C)=O)c1)c1cccc(C)c1,inactive: -9.87%,
CCOC(=O)c1ccc(-c2ccc(/C=C(\C#N)C(=O)Nc3c(C)cccc3Cl)o2)cc1,inactive: -7.14%,
COc1cc(Cl)c(NC(=O)c2cc(S(=O)(=O)N3CCOCC3)cn2C)c(OC)c1,inactive: 1.86%,
CCc1nn2c(-c3ccco3)ccnc2c1-c1ccc(F)cc1,inactive: -1.72%,
C#CCSc1nc2sc3c(c2c(=O)n1-c1cccc(OC)c1)CCN(C(C)=O)C3,inactive: -10.2%,
CCOC(=O)CNC(c1ccccc1)c1cc(Br)ccc1NC(=O)c1ccc(Cl)cc1 (stereo not given),inactive: -18.8%,

SMILES,activation,Potency
CC(=O)c1c(C)oc2c(Cl)cc(NS(=O)(=O)c3cc(C)c(C)cc3C)cc12,inactive: -19.8%,
CC(C)(C)NC(=O)Cn1cc(S(=O)(=O)Cc2ccc(F)cc2)c2ccccc21,inactive: -10.2%,
COCCn1c(SCC(=O)c2ccc(OC)cc2)nc2cc(C(=O)NC3CCCC3)ccc2c1=O,inactive: -12.2%,
CCCOc1ccc(-c2nonc2NC(=O)COc2ccc(C)cc2)cc1OCCC,inactive: 4.69%,
CCC(=O)Nc1ccc2nc(SCCOc3cccc(C)c3)sc2c1,inactive: -19.6%,
Cc1ccc(S(=O)(=O)c2nnn(CC(=O)Nc3ccccc3C)c2N)cc1C,inactive: -14.1%,
CCOc1ccc(OCC)c(NC(=O)c2cnc3c(-c4ccccc4)c(C)nn3c2C)c1,inactive: -0.474%,
CC(C)Cc1ccc(S(=O)(=O)Nc2ccc3[nH]c(=O)[nH]c3c2)cc1,inactive: -12.2%,
O=C(NCc1ccccc1F)C(=O)NCC(c1cccs1)S(=O)(=O)c1cccs1 (stereo not given),inactive: -0.981%,
O=C(CCC1N=C2c3ccccc3N=C(SCc3ccccc3Cl)N2C1=O)NCc1cccs1 (stereo not given),inactive: -13.3%,
COc1ccccc1OCC(=O)NCC1(N2CCOCC2)CCCCC1,inactive: -20.7%,
O=C(NCc1cccc(Cl)c1)c1ccc(CS(=O)Cc2ccccc2Cl)o1 (stereo not given),inactive: -14.4%,
Cc1ccc(-n2c(=O)c3c(c4cc(C)ccc4n3C)n(CC(=O)NCCC3=CCCCC3)c2=O)cc1,inactive: -5.88%,
COC(=O)c1cc2oc(C)cc2n1Cc1cccc(Cl)c1,inactive: -7.39%,
O=c1c2oc3ccccc3c2n(Cc2cccc(Cl)c2)c(=O)n1Cc1ccc2c(c1)OCO2,inactive: -8.13%,
CCOc1ccc2nc(N(Cc3cccnc3)C(=O)c3ccc4c(c3)OCCO4)sc2c1,inactive: -2.59%,
COC(=O)c1cc2sc(C)cc2n1Cc1ccc(F)cc1Cl,inactive: -6.65%,
COc1cccc(CSc2nc3cc(OC)c(OC)cc3c3nc(CCn4nc(C)cc4C)nn23)c1,inactive: 5.67%,
O=C(NC1(C(F)(F)F)NC(=O)N(CCc2ccccc2)C1=O)c1ccccc1F (stereo not given),inactive: -12.2%,
O=S(=O)(c1ccc(Cl)cc1)c1nc(-c2ccccc2Br)oc1N1CCOCC1,inactive: -16.5%,
COc1ccccc1CNC(=O)Cn1c(=O)ccc2cc(S(=O)(=O)N3CCC(C)CC3)ccc21,inactive: -14%,
CC1Cc2ccccc2N1S(=O)(=O)c1nnc(NC(=O)c2ccccc2Br)s1 (stereo not given),inactive: -12.3%,
COc1ccc(-c2cn3nc(N4CCCC(C(=O)Nc5ccc(Cl)cc5C)C4)sc3n2)cc1 (stereo not given),inactive: -4.12%,
Cc1[nH]c2ccc(F)cc2c1CCNC(=O)c1cc2cc(Cl)ccc2oc1=O,inactive: -3.75%,

SMILES,activation,Potency
COc1ccc(S(=O)(=O)NCC(c2cccs2)S(=O)(=O)c2ccc(C)cc2)cc1F (stereo not given),inactive: -3.23%,
CC(C)Oc1ccc(C(=O)Nc2ccc3oc(-c4ccncc4)nc3c2)cc1,inactive: 3.77%,
Cn1c(=O)c2c(nc(NCCc3ccccc3)n2Cc2cccc(Br)c2)n(C)c1=O,inactive: -15.1%,
CCCCN(CC)CCCNC(=O)c1cn(CC(C)C)c(=O)c2c1c1ccccc1n2C,inactive: -6.33%,
O=c1n(Cc2ccc(F)cc2Cl)c2ccccc2c2nc(-c3ccccc3)nn12,inactive: -14.4%,
COc1ccc2c(c1)CCc1c(C(=O)Nc3c(C)nn(Cc4ccccc4Cl)c3C)noc1-2,inactive: -1.76%,
Cc1ccc(CCNC(=O)c2nnc(Cc3cccc(F)c3)o2)cc1,inactive: -14.4%,
COc1ccc(Cl)cc1NS(=O)(=O)c1c(C)nc2scc(C)n2c1=O,inactive: -9.63%,
Cc1ccc(CNC(=O)c2c[nH]c3ccc(S(=O)(=O)Nc4ccc(C(C)C)cc4)cc3c2=O)cc1,inactive: -3.3%,
COCCn1c(CNC(=O)c2cc([N+](=O)[O-])ccc2Cl)nc2cccnc21,inactive: 8.64%,
COc1cc(NC(=O)C(NC(=O)C2CCC(C)CC2)C(C)C)cc(OC)c1OC (stereo not given),inactive: -15.6%,
COc1ccc(NC(=O)Cn2cnc3c(nc4n3CCCCC4)c2=O)c(OC)c1,inactive: -21%,
COCCCn1c(=N)c(C(=O)NC2CCCCC2)cc2c(=O)n3ccccc3nc21,inactive: -14.7%,
COc1ccc(C(=O)Nc2onc3c2CCCC3)cc1,inactive: -2.33%,
Cc1c(CNC2CCCCCC2)c(C(=O)O)c(C)n1Cc1c(F)cccc1Cl,inactive: -10.2%,
COc1ccc(C2=CC(c3ccc(N(C)C)cc3)n3nnnc3N2)cc1 (stereo not given),inactive: -2.44%,
CCOC(=O)c1ccccc1NC(=O)Cc1c(C(=O)O)c(C)cn1C,inactive: -3.85%,
Cc1ccc(-n2ncc(C(=O)N3CCN(c4ccccn4)CC3)c2C2CCN(C(=O)OC(C)(C)C)CC2)cc1C,inactive: -12.6%,
Cc1cccc(CS(=O)(=O)CC2Nc3ccc(C(=O)NCc4ccccc4)cc3NC2=O)c1 (stereo not given),inactive: -5.81%,
COc1ccc(N2CCN(C(=O)Cn3cnc4sc(C)c(S(=O)(=O)N5CCC(C)CC5)c4c3=O)CC2)cc1,inactive: -13.9%,
CCOC(=O)c1ccc(N2C(=O)c3n[nH]c(C)c3C2c2ccc(O)c(OC)c2)cc1 (stereo not given),inactive: -11.7%,
O=C(Nc1cc(-c2nc3ccccc3o2)ccc1Cl)c1cccc2c(Cl)cccc12,inactive: -28.4%,
CCOC(=O)c1ccc(NC(=O)Cc2coc3cc(C)cc(C)c23)cc1,inactive: -13.4%,
